# Test results taken from the supplement of paper PMC8728848.
# The list shows a part of the results.
# B1: RVL (Remusatia vivipara), B5LYJ9 (protein)
# chain: MAKLLLFLLPAILGLLVPRSAVALGTNYLLSGQTLDTEGHLKNGDFDLVMQDDCNLVLYNGNWQSNTANNGRDCKLTLTDYGELVIKNGDGSTVWKSGAQSVKGNYAAVVHPDGRLVVLGPSVFKIDPWVRGLNSLRFRNIPFTNNLLFSGQVLYGDGRLTAKNHQLVMQGDCNLVLYGGKYGWQSNTHGNGEHCFLRLNHKGELIIKDDDFKTIWSSRSSSKQGEYVLILQDDGFGVIYGPAIFETSSKRSIAAS
# What was measured:
# Assay in all cases: glycan array binding signal (z-score within array); higher = stronger binding
# Conditions in all cases: glycan notation: IUPAC condensed, linker removed
# [1] = biological target: Gal3S(b1-3)GalNAc
# In short: (§1)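 From the Consortium for Functional Glycomics database, 3228 arrays were curated, keeping only those whose protein sequence was available. Binding is given as a within-array Z-score averaged across arrays sharing a protein sequence and across linkers. Negative Z-scores can be read as non-binding.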
# [2] = biological target: Gal3S(b1-3)GlcNAc
# In short: as §1
# [3] = biological target: Gal3S(b1-3)[Fuc(a1-4)]GlcNAc
# In short: as §1
# [4] = biological target: Gal3S(b1-4)Glc
# In short: as §1
# [5] = biological target: Gal3S(b1-4)Glc6S
# In short: as §1
# [6] = biological target: Gal3S(b1-4)GlcNAc
# In short: as §1
# [7] = biological target: Gal3S(b1-4)GlcNAc6S
# In short: as §1
# [8] = biological target: Gal3S(b1-4)[Fuc(a1-3)]Glc
# In short: as §1
# [9] = biological target: Gal3S(b1-4)[Fuc(a1-3)]Glc6S
# In short: as §1
# [10] = biological target: Gal3S4S(b1-4)GlcNAc
# In short: as §1
# [11] = biological target: Gal3S6S(b1-4)GlcNAc
# In short: as §1
# [12] = biological target: Gal3S6S(b1-4)GlcNAc6S
# In short: as §1
# [13] = biological target: Gal4S(b1-4)GlcNAc
# In short: as §1
# [14] = biological target: Gal4S6S(b1-4)GlcNAc
# In short: as §1
# [15] = biological target: Gal6P(b1-4)GlcNAc
# In short: as §1
# [16] = biological target: Gal6S(b1-3)GlcNAc
# In short: as §1
# [17] = biological target: Gal6S(b1-3)GlcNAc6S
# In short: as §1
# [18] = biological target: Gal6S(b1-4)Glc
# In short: as §1
# [19] = biological target: Gal6S(b1-4)Glc6S
# In short: as §1
# [20] = biological target: Gal6S(b1-4)GlcNAc
# In short: as §1
# [21] = biological target: Gal6S(b1-4)GlcNAc6S
# In short: as §1
# [22] = biological target: GalNAc(a1-3)Gal
# In short: as §1
# [23] = biological target: GalNAc(a1-3)GalNAc
# In short: as §1
# [24] = biological target: GalNAc(a1-3)GalNAc(a1-3)Gal(a1-4)Gal(b1-4)GlcNAc
# In short: as §1
# [25] = biological target: GalNAc(a1-3)GalNAc(b1-3)Gal(a1-4)Gal(b1-4)Glc
# In short: as §1
# [26] = biological target: GalNAc(a1-3)GalNAc(b1-3)Gal(a1-4)Gal(b1-4)GlcNAc
# In short: as §1
# [27] = biological target: GalNAc(b1-3)Gal
# In short: as §1
# [28] = biological target: GalNAc(b1-3)Gal(a1-4)Gal(b1-4)GlcNAc
# In short: as §1
# [29] = biological target: GalNAc(b1-3)Gal(a1-4)Gal(b1-4)GlcNAc(b1-3)Gal(b1-4)Glc
# In short: as §1
# [30] = biological target: GalNAc(b1-3)Gal(a1-6)Gal(b1-4)Glc
# In short: as §1
# [31] = biological target: GalNAc(b1-3)GalNAc
# In short: as §1
# [32] = biological target: GalNAc(b1-4)Gal(b1-4)Glc
# In short: as §1
# [33] = biological target: GalNAc(b1-4)GlcNAc
# In short: as §1
# [34] = biological target: GalNAc(b1-4)GlcNAc(b1-2)Man(a1-3)[GalNAc(b1-4)GlcNAc(b1-2)Man(a1-6)]Man(b1-4)GlcNAc(b1-4)GlcNAc
# In short: as §1
# [35] = biological target: GalNAc(b1-4)GlcNAc6S
# In short: as §1
# [36] = biological target: GalNAc(b1-6)GalNAc
# In short: as §1
# [37] = biological target: GalNAc3S(b1-4)GlcNAc
# In short: as §1
# [38] = biological target: GalNAc3S(b1-4)GlcNAc3S
# In short: as §1
binder,measurement,setting,value
B1,glycan array binding signal (z-score),[1],-0.196
same,glycan array binding signal (z-score),[2],0.096
same,glycan array binding signal (z-score),[3],-0.004
same,glycan array binding signal (z-score),[4],-0.105
same,glycan array binding signal (z-score),[5],-0.27
same,glycan array binding signal (z-score),[6],-0.113
same,glycan array binding signal (z-score),[7],-0.119
same,glycan array binding signal (z-score),[8],-0.181
same,glycan array binding signal (z-score),[9],-0.239
same,glycan array binding signal (z-score),[10],-0.017
same,glycan array binding signal (z-score),[11],-0.163
same,glycan array binding signal (z-score),[12],-0.316
same,glycan array binding signal (z-score),[13],-0.249
same,glycan array binding signal (z-score),[14],-0.177
same,glycan array binding signal (z-score),[15],-0.218
same,glycan array binding signal (z-score),[16],-0.046
same,glycan array binding signal (z-score),[17],0.134
same,glycan array binding signal (z-score),[18],-0.118
same,glycan array binding signal (z-score),[19],-0.102
same,glycan array binding signal (z-score),[20],-0.03
same,glycan array binding signal (z-score),[21],0.058
same,glycan array binding signal (z-score),[22],-0.205
same,glycan array binding signal (z-score),[23],-0.132
same,glycan array binding signal (z-score),[24],-0.126
same,glycan array binding signal (z-score),[25],-0.233
same,glycan array binding signal (z-score),[26],-0.305
same,glycan array binding signal (z-score),[27],-0.075
same,glycan array binding signal (z-score),[28],-0.084
same,glycan array binding signal (z-score),[29],-0.066
same,glycan array binding signal (z-score),[30],-0.17
same,glycan array binding signal (z-score),[31],-0.338
same,glycan array binding signal (z-score),[32],0.013
same,glycan array binding signal (z-score),[33],-0.219
same,glycan array binding signal (z-score),[34],-0.371
same,glycan array binding signal (z-score),[35],-0.19
same,glycan array binding signal (z-score),[36],-0.006
same,glycan array binding signal (z-score),[37],-0.139
same,glycan array binding signal (z-score),[38],0.264
